# Measurements as given in the supplement of paper PMC5499739.
# Whole data set: some 16,000 sequences, median “Z-score” near -0.37, cut for the highest 2% near 3.2. The list shows a part of the results.
# System: RBM10 RRM1-ZnF (GST-tagged construct)
# Experiment: RNAcompete 7-mer binding Z-score; higher = stronger binding preference
# Method in brief: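 A one-sided Z-score for enrichment, taken across the probes containing each heptamer motif, was assigned to every such motif. The RNA came from a designed pool of 241 399 sequences up to 41 nt (1.5 nmol), bound by 20 pmol of GST-tagged RBM10 constructs in 1 ml Hepes pH 7.8 buffer with glutathione Sepharose beads for 30 min at 4°C. Four 2-min washes at 4°C preceded identification of bound RNA by microarray hybridisation.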
row,Sequence,RNAcompete 7-mer binding Z-score
1,CGAUUCA,-0.639
2,AAGCAGU,-0.145
3,UCGUGAU,-0.389
4,CAAUGCG,-0.0512
5,AAAACAG,0.095
6,CGGCCGA,-0.613
7,ACAGUGU,0.017
8,CGCAGCA,-0.223
9,ACUUGAA,-0.535
10,CCACUUA,-0.873
11,CCCUGAA,-0.474
12,ACGUACU,-0.571
13,GGCGAUC,0.14
14,AGUGGAA,3.24
15,ACGGGCC,0.128
16,UCCUUCC,-0.681
17,AGUUGAA,0.592
18,CCAACUC,-0.727
19,UUGAUCC,-0.785
20,CCAUCGU,-0.61
21,GCGAAUU,-0.132
22,UCGCUUC,-0.756
23,UCAGCAG,-0.00896

row,Sequence,RNAcompete 7-mer binding Z-score
1,CGUCCCA,-0.587
2,UACUCCU,-0.798
3,CGGCUUA,-0.383
4,AAUUGCU,-0.506
5,AAGUACU,-0.561
6,UGGGGAU,3.57
7,AAACGGU,1.16
8,CGUCGAG,-0.0414
9,CCACUGA,-0.555
10,CAUAACG,-0.5
11,ACAACGU,-0.321
12,UCCUAAG,-0.483
13,CGGUAGA,0.933
14,CCGCCCA,-0.428
15,GCUAUUC,-0.772
16,GACUUUA,-0.724
17,GGAAUUG,2.02
18,AGGAUUC,-0.214
19,CCUCGGG,0.423
20,AGAGGCA,0.15
21,GCUUCUU,-0.802
22,CCCUUGG,-0.269
23,AGACGGG,1.62

row,Sequence,RNAcompete 7-mer binding Z-score
1,UGUUGGU,0.927
2,UUGUGGU,1.07
3,AACUCAC,-0.591
4,AUUGGUA,1.27
5,GCAAGUC,-0.415
6,GGCGGAA,1.51
7,GAGGUAU,1.78
8,UCUGACC,-0.733
9,GCUUAAC,-0.457
10,CUCGCGA,-0.759
11,ACUAGCU,-0.535
12,ACUAUAU,-0.571
13,UGGCGUC,0.173
14,GUAAGAA,0.465
15,AACCUGC,-0.74
16,AGCUCGC,-0.584
17,UACAAAU,-0.357
18,GAAGAGU,1.39
19,GUCUUAA,-0.681
20,CAGUGUG,0.43
21,CAAACAG,-0.431
22,UCAGGUC,0.00404
23,CACCUAA,-0.652

row,Sequence,RNAcompete 7-mer binding Z-score
1,GCAGAAG,1.15
2,AUACACU,-0.47
3,AUUCUCG,-0.694
4,UUUAAGA,-0.438
5,GGUUAGU,1.7
6,AUAUGCU,-0.5
7,ACUGCGU,-0.389
8,AUAGUCA,-0.269
9,GUCACAU,-0.49
10,CCUUUCC,-0.886
11,GGGGAGC,2.29
12,CCAAAAG,-0.392
13,ACAGAGC,0.0365
14,UAGCAAG,0.15
15,UAGACCA,-0.542
16,GAUCCCG,-0.675
17,UGCUUUG,-0.558
18,UCCUGAA,-0.73
19,AUUUACC,-0.935
20,UGAUUCG,-0.334
21,AUAGUAG,0.595
22,CCCCUAU,-0.704
23,ACUCUAA,-0.685
